From the BET-seq Pho4 binding data (Le et al. 2018)
The list shows a part of the results. Values were computed here from the reads of four pooled replicates and scatter widely.

Molecular target: T1, Pho4 (S. cerevisiae) (UniProt P07270)
T1 sequence: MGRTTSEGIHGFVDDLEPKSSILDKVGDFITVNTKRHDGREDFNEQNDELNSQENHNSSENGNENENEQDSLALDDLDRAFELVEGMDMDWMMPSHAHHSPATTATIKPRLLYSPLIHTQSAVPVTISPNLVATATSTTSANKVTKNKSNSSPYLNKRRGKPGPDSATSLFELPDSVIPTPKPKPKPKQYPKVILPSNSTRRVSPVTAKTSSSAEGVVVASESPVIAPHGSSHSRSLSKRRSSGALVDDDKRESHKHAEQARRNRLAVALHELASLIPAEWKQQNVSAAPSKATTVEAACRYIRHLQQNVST
Assay: relative binding free energy (BET-seq); higher = weaker binding
Details: reference: library average

Row | Sequence | relative binding free energy [kcal/mol]
1 | GGGGACACGTGAAAAG | 0.42
2 | ATCGGCACGTGAGAGT | 0.18
3 | CTGTTCACGTGGTTGT | 0.31
4 | ATGGACACGTGGGGAA | -0.12
5 | ATGCTCACGTGGTGTA | 0.06
6 | TACGTCACGTGTGTTC | 0.21
7 | ATTATCACGTGGATGC | 0.07
8 | TTAGTCACGTGATATA | 0.25
9 | GTCTGCACGTGTGAGG | 0.01
10 | AGTGGCACGTGAAGGT | 0.14
11 | TTTCGCACGTGGTATG | -0.17
12 | ATGATCACGTGTGAGC | 0.24
13 | GTTGTCACGTGTAGCT | 0.06
14 | GAAATCACGTGGGGGC | 0.08
15 | ATGGGCACGTGGAGGC | -0.02
16 | TTGGACACGTGAGCAT | 0.38
17 | GGATGCACGTGGGCAG | -0.11
18 | CTTGTCACGTGTATAG | 0.04
19 | GGGTGCACGTGGGGAC | -0.14
20 | GGTTTCACGTGGTGGG | 0.33
21 | TTGTGCACGTGAGCAA | 0.23
22 | GGGCTCACGTGTGCTG | 0.16
23 | TAGCTCACGTGGGTAG | 0.03

Row | Sequence | relative binding free energy [kcal/mol]
24 | TAAGTCACGTGGAGGA | -0.04
25 | GTAGACACGTGATAGG | -0.1
26 | TTATCCACGTGGGTAG | -0.27
27 | TATGGCACGTGTTTCG | -0.04
28 | TTCGTCACGTGGTATA | -0.08
29 | GTATTCACGTGGTTAT | 0.26
30 | GTGTGCACGTGAGGGA | 0.39
31 | GGTGGCACGTGTACAT | -0.02
32 | TTTGGCACGTGCGTTG | -0.08
33 | TTTTGCACGTGAACGC | 0.33
34 | GGTCGCACGTGTTGCT | 0.03
35 | TTGCGCACGTGGAATT | 0.02
36 | CTTGCCACGTGAGTGG | 0.16
37 | CGGGACACGTGCTGGG | 0
38 | ATGTACACGTGGCATG | -0.17
39 | GTCTGCACGTGGGAAG | -0.08
40 | TGGCACACGTGGGATG | -0.17
41 | AGTGGCACGTGCGGCT | -0.09
42 | GTTTGCACGTGAGGCC | 0.37
43 | TTATTCACGTGGGCTA | 0.06
44 | AATCTCACGTGTGGTG | 0.13
45 | GGCTTCACGTGGATTG | 0.18
46 | AGCATCACGTGGGAGT | 0.04

Row | Sequence | relative binding free energy [kcal/mol]
47 | TGAAGCACGTGGTCGC | 0.02
48 | CGGAGCACGTGGGGAT | -0.06
49 | GAGGTCACGTGAGGAG | 0.39
50 | CTGCTCACGTGGAGGT | 0.15
51 | CGTTTCACGTGTTTCA | 0.3
52 | TATCGCACGTGAGGCG | 0.16
53 | GGGAGCACGTGAGAGA | 0.3
54 | TCTGGCACGTGCGGGC | -0.16
55 | GTTTACACGTGGTAAG | 0.14
56 | GTTAACACGTGTGTCT | 0.14
57 | GTGTCCACGTGCGTAG | 0.07
58 | AGTCTCACGTGAGGGT | 0.33
59 | ATGGGCACGTGGCCTA | -0.11
60 | TTGGTCACGTGGGAAG | 0.05
61 | TGGTTCACGTGGGACT | 0.21
62 | GTTTGCACGTGGTGCA | 0.13
63 | TAATGCACGTGCTGTG | -0.19
64 | GCTTTCACGTGAGGTA | 0.38
65 | CTGGGCACGTGGCCGG | -0.28
66 | GGGACCACGTGGGGGA | -0.09
67 | TTGTGCACGTGATCAG | -0.09
68 | AAAGGCACGTGTGTTG | -0.06
69 | AAAGTCACGTGGGTGT | 0.02

Row | Sequence | relative binding free energy [kcal/mol]
70 | ATAGTCACGTGGGTCC | 0.15
71 | AATGCCACGTGGGGCG | -0.22
72 | GGATTCACGTGTATCT | 0.24
73 | GGATGCACGTGGGGCA | -0.26
74 | TCTTTCACGTGTACGT | 0.32
75 | CGGTACACGTGTGTGG | 0.06
76 | GTGGTCACGTGCGTGA | 0.04
77 | GTTGTCACGTGTAACG | 0.18
78 | TAGGGCACGTGAGCAA | 0.25
79 | GTAGGCACGTGTAGTT | 0.03
80 | TAAACCACGTGTGGGT | -0.05
81 | AATTTCACGTGATCTT | 0.21
82 | TAAGACACGTGTAGGG | 0.13
83 | TCTGGCACGTGGTAAT | -0.2
84 | AGCGTCACGTGTGAGT | 0.09
85 | GGCATCACGTGAGGAG | 0.39
86 | ATATACACGTGATTAG | 0.08
87 | GGGATCACGTGGCAGG | 0.12
88 | GTTTTCACGTGGGATA | 0.14
89 | TAGGGCACGTGGAAGG | -0.11
90 | CGTCTCACGTGAGGTT | 0.3
91 | TGGAACACGTGCTGTG | 0
92 | GAGGGCACGTGCTAGG | -0.18

Row | Sequence | relative binding free energy [kcal/mol]
93 | TGGTTCACGTGCGAGA | 0.24
94 | CGGTTCACGTGCAGGG | 0.24
95 | TGGTTCACGTGTGTCT | 0.37
96 | TTGCTCACGTGTGGGG | 0.2
97 | TTCTGCACGTGATTCG | 0.13
98 | GGTAGCACGTGGTGAA | -0.13
99 | GTGCTCACGTGGTCTG | 0.19
100 | CTTAGCACGTGGTAGT | -0.18
101 | GAGAACACGTGGAGTT | 0.13
102 | CATTACACGTGTTATG | 0.03
103 | CGGGCCACGTGGCTGG | -0.16
104 | AGGTCCACGTGGTTGC | 0.05
105 | ATGTCCACGTGTAGGT | -0.05
106 | TGGGCCACGTGATGGG | 0.16
107 | AGCTGCACGTGTGGTC | 0.12
108 | GCGTTCACGTGGTTCT | 0.28
109 | GGTCACACGTGTGTGC | 0.16
110 | GGGAGCACGTGCTTGT | -0.16
111 | TGGGTCACGTGCGAGG | 0.05
112 | AATCACACGTGGGGGA | 0.02
113 | GACTTCACGTGTGGGG | 0.31
114 | TGTGACACGTGAGGTC | 0.24
115 | TTGGGCACGTGGGCTC | -0.17
